We go through 26 compounds from the supplement of paper PMC10037445.

The test system of assay [1] is RAW-Dual. Put plainly: IRF Lucia reporter activity, fold change vs agonist alone; cytotoxicity flag (confluency mask): not cytotoxic; higher = enhanced IRF activity. The procedure, abridged: (§1)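 RAW-Dual macrophages were seeded in DMEM at 50,000 cells/well in 384-well plates, given 50 nL of library stock by pin tool, and given a PRR agonist 1 h later. Plates were held at 37 °C, 5% CO2 for 20 hours, after which supernatant was read for IRF by QuantiLuc luminescence and for NF-κB by QuantiBlue absorbance at 620 nm. Reporter activity is expressed as fold change over wells that received agonist alone. A well was called cytotoxic when IncuCyte confluency fell below 70% of agonist controls in both mask sets.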

Assay [2] deals with RAW-Dual. Put plainly: IRF Lucia reporter activity, fold change vs agonist alone; higher = enhanced IRF activity. To be noted: library stock concentration (final ~1000-fold dilution): 10 mM, agonist: MPLA (TLR4) […]. The procedure, abridged: as §1
Assay [3] has as its system RAW-Dual. Put plainly: IRF Lucia reporter activity, fold change vs agonist alone; cytotoxicity flag (confluency mask): cytotoxic (confluency <70% of control); higher = enhanced IRF activity. The essentials:
as §1

Setting [4] is: agonist: 3'3'-cGAMP (STING) 10 ug/mL.
Setting [5] is: cytotoxicity flag (confluency mask): not cytotoxic.
Where [6] appears, read: cytotoxicity flag (confluency mask): cytotoxic (confluency <70% of control).

Over roughly 2,900 compounds, “IRF Lucia reporter activity, fold change vs agonist alone” has its median near 0.9; the highest 2% begin near 2.8. The list shows a part of the results.

Take `CNc1nc(Nc2cn(C(C)(C)C#N)nc2C)ncc1C(F)(F)F` (library stock concentration (final ~1000-fold dilution): 10 mM): the “IRF Lucia reporter activity” value in the assay on RAW-Dual [1] (setting [4]) was determined as 0.665; in the assay on RAW-Dual [1] (agonist: LPS (TLR4) 0.1 ug/mL), 0.819.

With `CNc1nc(Nc2cn(C(C)(C)C#N)nc2C)ncc1C(F)(F)F`, the “IRF Lucia reporter activity” value in the assay with RAW-Dual [2] (setting [5]) came out at 1.12.

Regarding `C=CC(=O)N1C/C(=C\c2ccc([N+](=O)[O-])cc2)C(=O)/C(=C/c2ccc([N+](=O)[O-])cc2)C1` (library stock concentration (final ~1000-fold dilution): 10 mM), the figures for the “IRF Lucia reporter activity” value in the assay with RAW-Dual [3] (setting [4]) and in the assay on RAW-Dual [3] (agonist: LPS (TLR4) 0.1 ug/mL) were 0.146 and 0.0615, respectively.

As for `C=CC(=O)N1C/C(=C\c2ccc([N+](=O)[O-])cc2)C(=O)/C(=C/c2ccc([N+](=O)[O-])cc2)C1`, the “IRF Lucia reporter activity” value in the assay with RAW-Dual [2] (setting [6]) amounted to 0.573.

As for `Cn1c(-c2ccccc2C(F)(F)F)nnc1C12CCC(c3noc(C4CC(F)(F)C4)n3)(CC1)CC2` (library stock concentration (final ~1000-fold dilution): 10 mM), the figures for the “IRF Lucia reporter activity” value in the assay with RAW-Dual [1] (setting [4]) and in the assay with RAW-Dual [1] (agonist: LPS (TLR4) 0.1 ug/mL) were 1.54 and 1.6, respectively.

As for `O=C(Nc1ccncc1)c1cc([N+](=O)[O-])ccc1Cl` (library stock concentration (final ~1000-fold dilution): 10 mM), the “IRF Lucia reporter activity” value in the assay on RAW-Dual [1] (setting [4]) was 1.05; with RAW-Dual [1] (agonist: LPS (TLR4) 0.1 ug/mL) it was 1.21.

As to `O=C(Nc1ccncc1)c1cc([N+](=O)[O-])ccc1Cl`, the “IRF Lucia reporter activity” value in the assay with RAW-Dual [2] (setting [5]) came out at 1.1.

For the compound `O=C(CCCN1CCN(c2ccccn2)CC1)c1ccc(F)cc1` (library stock concentration (final ~1000-fold dilution): 10 mM), the “IRF Lucia reporter activity” value in the assay with RAW-Dual [1] (setting [4]) was 1.08; with RAW-Dual [1] (agonist: LPS (TLR4) 0.1 ug/mL), 1.18.

With `O=C(CCCN1CCN(c2ccccn2)CC1)c1ccc(F)cc1`, the “IRF Lucia reporter activity” value with RAW-Dual [2] (setting [5]) was found to be 1.24.

`CCOC(=O)C(CCc1ccccc1)NC(C)C(=O)N(CC(=O)O)C1Cc2ccccc2C1.Cl` (stereo unspecified) (library stock concentration (final ~1000-fold dilution): 10 mM): the “IRF Lucia reporter activity” value in the assay with RAW-Dual [1] (setting [4]) was determined as 1.04; in the assay on RAW-Dual [1] (agonist: LPS (TLR4) 0.1 ug/mL) it was 1.18.

With `CCOC(=O)C(CCc1ccccc1)NC(C)C(=O)N(CC(=O)O)C1Cc2ccccc2C1.Cl` (stereo unspecified), in the assay with RAW-Dual [2] (setting [5]), the “IRF Lucia reporter activity” value came out at 1.08.

As for `COCCCC/C(=N\OCCN)c1ccc(C(F)(F)F)cc1.O=C(O)/C=C\C(=O)O` (library stock concentration (final ~1000-fold dilution): 10 mM), the results for the “IRF Lucia reporter activity” value in the assay on RAW-Dual [1] (setting [4]) and with RAW-Dual [1] (agonist: LPS (TLR4) 0.1 ug/mL) were 0.702 and 0.877, respectively.

In the case of `COCCCC/C(=N\OCCN)c1ccc(C(F)(F)F)cc1.O=C(O)/C=C\C(=O)O`, the “IRF Lucia reporter activity” value in the assay with RAW-Dual [2] (setting [5]) is 1.43.

As to `Nc1nc(-c2ccco2)c2cnn(Cc3ccccc3F)c2n1` (library stock concentration (final ~1000-fold dilution): 10 mM), the “IRF Lucia reporter activity” value with RAW-Dual [1] (setting [4]) is 0.862; with RAW-Dual [1] (agonist: LPS (TLR4) 0.1 ug/mL), 0.69.

With `Cc1ccc(F)c(NC(=O)Nc2ccc(-c3cccc4[nH]nc(N)c34)cc2)c1` (library stock concentration (final ~1000-fold dilution): 10 mM), the “IRF Lucia reporter activity” value was found to be 0.114 in the assay on RAW-Dual [3] (setting [4]) and 0.671 in the assay with RAW-Dual [3] (agonist: LPS (TLR4) 0.1 ug/mL).

Consider `Cc1ccc(F)c(NC(=O)Nc2ccc(-c3cccc4[nH]nc(N)c34)cc2)c1`, for which, in the assay with RAW-Dual [2] (setting [6]), the “IRF Lucia reporter activity” value was determined as 0.665.

With `C=CC(=O)N1CCCC(n2c(=O)n(-c3ccc(Oc4ccccc4)cc3)c3c(N)ncnc32)C1` (stereo unspecified) (library stock concentration (final ~1000-fold dilution): 10 mM), the “IRF Lucia reporter activity” value with RAW-Dual [1] (setting [4]) worked out at 0.831; in the assay with RAW-Dual [1] (agonist: LPS (TLR4) 0.1 ug/mL), 0.761.

In the case of `CC(=O)OC(C)OC(=O)C(C)c1ccc(-c2ccccc2)c(F)c1` (stereo unspecified) (library stock concentration (final ~1000-fold dilution): 10 mM), the “IRF Lucia reporter activity” value was found to be 0.981 in the assay on RAW-Dual [1] (setting [4]) and 1.03 in the assay on RAW-Dual [1] (agonist: LPS (TLR4) 0.1 ug/mL).

Regarding `CC(=O)OC(C)OC(=O)C(C)c1ccc(-c2ccccc2)c(F)c1` (stereo unspecified), the “IRF Lucia reporter activity” value in the assay on RAW-Dual [2] (setting [5]) came to 1.08.

With `Cc1ccc(NC(=O)c2cccc(C(C)(C)C#N)c2)cc1Nc1ccc2ncn(C)c(=O)c2c1`, the “IRF Lucia reporter activity” value with RAW-Dual [2] (setting [5]) was 0.926.

Consider `Cc1ccc(NC(=O)c2cccc(C(C)(C)C#N)c2)cc1Nc1ccc2ncn(C)c(=O)c2c1` (library stock concentration (final ~1000-fold dilution): 10 mM), for which the “IRF Lucia reporter activity” value was 0.559 in the assay on RAW-Dual [1] (setting [4]) and 0.808 with RAW-Dual [1] (agonist: LPS (TLR4) 0.1 ug/mL).

In the case of `O=P(O)(O)Oc1cccc2ccccc12` (library stock concentration (final ~1000-fold dilution): 10 mM), the “IRF Lucia reporter activity” value worked out at 1 in the assay with RAW-Dual [1] (setting [4]) and 1.33 in the assay on RAW-Dual [1] (agonist: LPS (TLR4) 0.1 ug/mL).

`O=P(O)(O)Oc1cccc2ccccc12`: the “IRF Lucia reporter activity” value in the assay on RAW-Dual [2] (setting [5]) came out at 1.11.

Consider `Cl.Cn1cc(-c2nc(NC3CCCCC3N)c(F)c3c2C(=O)NC3)cn1` (stereo unspecified) (library stock concentration (final ~1000-fold dilution): 10 mM water), for which the “IRF Lucia reporter activity” value came to 0.528 with RAW-Dual [1] (setting [4]) and 0.75 in the assay with RAW-Dual [1] (agonist: LPS (TLR4) 0.1 ug/mL).

In the case of `OCCN(CCO)c1nc(N2CCCCC2)c2nc(N(CCO)CCO)nc(N3CCCCC3)c2n1`, the “IRF Lucia reporter activity” value in the assay with RAW-Dual [2] (setting [5]) came to 0.905.

For `OCCN(CCO)c1nc(N2CCCCC2)c2nc(N(CCO)CCO)nc(N3CCCCC3)c2n1` (library stock concentration (final ~1000-fold dilution): 10 mM), the “IRF Lucia reporter activity” value was found to be 0.572 in the assay with RAW-Dual [1] (setting [4]) and 0.89 in the assay with RAW-Dual [1] (agonist: LPS (TLR4) 0.1 ug/mL).
